# Test results taken from the supplement of paper PMC8728848.
# This is one part of the list.
# B1: RBMC1 (Vibrio cholerae) (protein)
# chain: QQSQRVVTADNLMYLRSGFAIDAIGTTVNNLVGGPVQGTNGGVLRAPIALDQLQSVEVTSGLYNWGGYHIVAIKFTMKDGSSVLLGSTHYASNKKVETYTVPQGKRIKQINVWTGGWLVEGFQFVY
# What was measured:
# Experiment in all cases: glycan array binding signal (z-score within array); higher = stronger binding
# Details in all cases: glycan notation: IUPAC condensed, linker removed
# Gal6S(b1-4)Glc6S = molecular target: Gal6S(b1-4)Glc6S
# Outline: (§1)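 The binding signal is a Z-score computed within each array and averaged over linkers. Arrays of the same protein sequence at different concentrations or buffers were also averaged together. Data originate from 3228 arrays in the Consortium for Functional Glycomics database, kept only where the protein sequence was available.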
# Gal6S(b1-4)GlcNAc = molecular target: Gal6S(b1-4)GlcNAc
# Outline: as §1
# Gal6S(b1-4)GlcNAc6S = molecular target: Gal6S(b1-4)GlcNAc6S
# Outline: as §1
# GalNAc(a1-3)Gal = molecular target: GalNAc(a1-3)Gal
# Outline: as §1
# GalNAc(a1-3)GalNAc = molecular target: GalNAc(a1-3)GalNAc
# Outline: as §1
# [1] = molecular target: GalNAc(a1-3)GalNAc(b1-3)Gal(a1-4)Gal(b1-4)Glc
# Outline: as §1
# [2] = molecular target: GalNAc(a1-3)GalNAc(b1-3)Gal(a1-4)Gal(b1-4)GlcNAc
# Outline: as §1
# GalNAc(b1-3)Gal = molecular target: GalNAc(b1-3)Gal
# Outline: as §1
# [3] = molecular target: GalNAc(b1-3)Gal(a1-4)Gal(b1-4)GlcNAc
# Outline: as §1
# [4] = molecular target: GalNAc(b1-3)Gal(a1-4)Gal(b1-4)GlcNAc(b1-3)Gal(b1-4)Glc
# Outline: as §1
# [5] = molecular target: GalNAc(b1-3)Gal(a1-6)Gal(b1-4)Glc
# Outline: as §1
# GalNAc(b1-3)GalNAc = molecular target: GalNAc(b1-3)GalNAc
# Outline: as §1
# GalNAc(b1-3)GlcNAc = molecular target: GalNAc(b1-3)GlcNAc
# Outline: as §1
# GalNAc(b1-4)Gal(b1-4)Glc = molecular target: GalNAc(b1-4)Gal(b1-4)Glc
# Outline: as §1
# GalNAc(b1-4)GlcNAc = molecular target: GalNAc(b1-4)GlcNAc
# Outline: as §1
# [6] = molecular target: GalNAc(b1-4)GlcNAc(b1-2)Man
# Outline: as §1
# [7] = molecular target: GalNAc(b1-4)GlcNAc(b1-2)Man(a1-3)[GalNAc(b1-4)GlcNAc(b1-2)Man(a1-6)]Man(b1-4)GlcNAc(b1-4)GlcNAc
# Outline: as §1
# [8] = molecular target: GalNAc(b1-4)GlcNAc(b1-3)GalNAc(b1-4)GlcNAc
# Outline: as §1
# GalNAc(b1-4)GlcNAc6S = molecular target: GalNAc(b1-4)GlcNAc6S
# Outline: as §1
# GalNAc(b1-6)GalNAc = molecular target: GalNAc(b1-6)GalNAc
# Outline: as §1
# GalNAc3S(b1-4)GlcNAc = molecular target: GalNAc3S(b1-4)GlcNAc
# Outline: as §1
# GalNAc3S(b1-4)GlcNAc3S = molecular target: GalNAc3S(b1-4)GlcNAc3S
# Outline: as §1
# [9] = molecular target: GalNAc3S(b1-4)[Fuc(a1-3)]GlcNAc
# Outline: as §1
# GalNAc4S6S(b1-4)GlcNAc = molecular target: GalNAc4S6S(b1-4)GlcNAc
# Outline: as §1
# GalNAc6S(b1-4)GlcNAc = molecular target: GalNAc6S(b1-4)GlcNAc
# Outline: as §1
# Glc(a1-4)Glc = molecular target: Glc(a1-4)Glc
# Outline: as §1
# [10] = molecular target: Glc(a1-4)Glc(a1-4)Glc(a1-4)Glc
# Outline: as §1
# Glc(a1-6)Glc(a1-6)Glc = molecular target: Glc(a1-6)Glc(a1-6)Glc
# Outline: as §1
# [11] = molecular target: Glc(a1-6)Glc(a1-6)Glc(a1-6)Glc
# Outline: as §1
# Glc(b1-4)Glc = molecular target: Glc(b1-4)Glc
# Outline: as §1
# Glc(b1-6)Glc = molecular target: Glc(b1-6)Glc
# Outline: as §1
# GlcA(b1-3)Gal = molecular target: GlcA(b1-3)Gal
# Outline: as §1
# GlcA(b1-3)GlcNAc = molecular target: GlcA(b1-3)GlcNAc
# Outline: as §1
# GlcA(b1-6)Gal = molecular target: GlcA(b1-6)Gal
# Outline: as §1
# [12] = molecular target: GlcA3S(b1-3)Gal(b1-4)GlcNAc(b1-2)Man
# Outline: as §1
# [13] = molecular target: GlcA3S(b1-3)Gal(b1-4)GlcNAc(b1-3)Gal(b1-4)Glc
# Outline: as §1
# [14] = molecular target: GlcNAc(a1-3)Gal(b1-4)GlcNAc
# Outline: as §1
# [15] = molecular target: GlcNAc(a1-4)Gal(b1-3)GlcNAc
# Outline: as §1
# [16] = molecular target: GlcNAc(a1-4)Gal(b1-4)GalNAc
# Outline: as §1
# [17] = molecular target: GlcNAc(a1-4)Gal(b1-4)GlcNAc
# Outline: as §1
# [18] = molecular target: GlcNAc(a1-4)Gal(b1-4)GlcNAc(b1-3)Gal(b1-4)Glc
# Outline: as §1
# [19] = molecular target: GlcNAc(a1-4)Gal(b1-4)GlcNAc(b1-3)Gal(b1-4)GlcNAc
# Outline: as §1
# [20] = molecular target: GlcNAc(a1-4)Gal(b1-4)GlcNAc(b1-3)Gal(b1-4)GlcNAc(b1-3)Gal(b1-4)GlcNAc
# Outline: as §1
# [21] = molecular target: GlcNAc(a1-4)Gal(b1-4)GlcNAc(b1-3)Gal(b1-4)[Fuc(a1-3)]GlcNAc(b1-3)Gal(b1-4)[Fuc(a1-3)]GlcNAc
# Outline: as §1
# [22] = molecular target: GlcNAc(a1-6)Gal(b1-4)GlcNAc
# Outline: as §1
binder,measurement,setting,value
B1,glycan array binding signal (z-score),Gal6S(b1-4)Glc6S,-0.245
same,glycan array binding signal (z-score),Gal6S(b1-4)GlcNAc,-0.363
same,glycan array binding signal (z-score),Gal6S(b1-4)GlcNAc6S,-0.275
same,glycan array binding signal (z-score),GalNAc(a1-3)Gal,-0.427
same,glycan array binding signal (z-score),GalNAc(a1-3)GalNAc,-0.37
same,glycan array binding signal (z-score),[1],-0.237
same,glycan array binding signal (z-score),[2],-0.064
same,glycan array binding signal (z-score),GalNAc(b1-3)Gal,-0.292
same,glycan array binding signal (z-score),[3],-0.246
same,glycan array binding signal (z-score),[4],-0.343
same,glycan array binding signal (z-score),[5],-0.363
same,glycan array binding signal (z-score),GalNAc(b1-3)GalNAc,-0.42
same,glycan array binding signal (z-score),GalNAc(b1-3)GlcNAc,-0.368
same,glycan array binding signal (z-score),GalNAc(b1-4)Gal(b1-4)Glc,-0.112
same,glycan array binding signal (z-score),GalNAc(b1-4)GlcNAc,0.162
same,glycan array binding signal (z-score),[6],-0.257
same,glycan array binding signal (z-score),[7],2.2
same,glycan array binding signal (z-score),[8],0.074
same,glycan array binding signal (z-score),GalNAc(b1-4)GlcNAc6S,-0.343
same,glycan array binding signal (z-score),GalNAc(b1-6)GalNAc,-0.432
same,glycan array binding signal (z-score),GalNAc3S(b1-4)GlcNAc,-0.379
same,glycan array binding signal (z-score),GalNAc3S(b1-4)GlcNAc3S,-0.407
same,glycan array binding signal (z-score),[9],-0.393
same,glycan array binding signal (z-score),GalNAc4S6S(b1-4)GlcNAc,-0.328
same,glycan array binding signal (z-score),GalNAc6S(b1-4)GlcNAc,-0.324
same,glycan array binding signal (z-score),Glc(a1-4)Glc,-0.216
same,glycan array binding signal (z-score),[10],-0.286
same,glycan array binding signal (z-score),Glc(a1-6)Glc(a1-6)Glc,-0.21
same,glycan array binding signal (z-score),[11],-0.066
same,glycan array binding signal (z-score),Glc(b1-4)Glc,-0.246
same,glycan array binding signal (z-score),Glc(b1-6)Glc,-0.413
same,glycan array binding signal (z-score),GlcA(b1-3)Gal,-0.211
same,glycan array binding signal (z-score),GlcA(b1-3)GlcNAc,-0.377
same,glycan array binding signal (z-score),GlcA(b1-6)Gal,-0.35
same,glycan array binding signal (z-score),[12],-0.37
same,glycan array binding signal (z-score),[13],-0.217
same,glycan array binding signal (z-score),[14],-0.39
same,glycan array binding signal (z-score),[15],-0.355
same,glycan array binding signal (z-score),[16],-0.014
same,glycan array binding signal (z-score),[17],-0.349
same,glycan array binding signal (z-score),[18],-0.284
same,glycan array binding signal (z-score),[19],-0.142
same,glycan array binding signal (z-score),[20],-0.335
same,glycan array binding signal (z-score),[21],-0.01
same,glycan array binding signal (z-score),[22],-0.273
